From the supplement of paper PMC12632987 come the findings set out here.

B1: GBRAP_157_3955 (protein)
chain: EVVVVGLLVLPTDTDAEVLAKARAAAAEMAATGRPTVLVVVIRAEDEELAESIEDAVEAVVGYELQRDVPIRVRRLPATATEEEARAALAALAAEARAAA
B2: GBRAP_39_5711 (protein)
chain: EEEEELELLASYYEALAAGEAEKKGISDEEFVEEVKKRIEEKAEEDPENKEVYERILRIMEEGNEEDRLAAAGIAIALEEGMPKEEAEKVLEHIEKERKK
B3: GBRAP_128_3553 (protein)
chain: STEEAVEKARELLEKIKESGPEEARKYAEELVDLLASVDPETRAAIVELILERLPELSVEKLEILADVFRERRPEVDPDVANDLADIEVEALNVALEKEE
B4: GBRAP_128_3548 (protein)
chain: SLEEAKEYAREVVEKIKESDVEEARKITTEFAEKLKTWSLEEVEAALEVVEELSKELDAEKLEAVADVLREQRDKFSPEVQELIAATEVELLNEALEKEE
B5: GBRAP_78_6699 (protein)
chain: ELEKLIEEAIKLVDEAIKLTKKLDPETQAELLDLLVDAASYLEEALEEGGDLELLEEALKKLEEALKLAEKLKKKEAEPLKKKLKEAIKKVKEAIKLVKK
B6: GBRAP_184_5131 (protein)
chain: TLVRRSVEAETAEEAKAQAEAVVAEAAAAGARLLLSVFAKNMSVEEIKELIKHLGALKKAHPQVTVILVVEDELSEEEMDKLIKEADANGVRLVLAISDE
B7: GBRAP_11_2816 (protein)
chain: VSELTKKMIELAKEVAELAEEYLTKAPGDEELLEKLLEKAKELLKLLKEHPDEALRRDAEVLLETIEEAKKDPENREFYVQNALAAARTLLLNLEEEAEE
B8: GBRAP_160_4439 (protein)
chain: SPALAAAEAELDAEAAFVKELADEVSVEDFARALDAEFSSVALNLLSEGRISEEAFDAIMAVVDAAVAELLANPDASLAERRALVDAALARMKAILRADA
B9: GBRAP_125_3106 (protein)
chain: EEEKLLEALKRIAKALGFDEEEAEEAARLARRFSVKNTLYAILLAEGEEELAELVLKLTEEQAKRVLLKVAEWLKEHPNASKEEVVKKLKEVAEEELAAA
B10: GBRAP_184_5165 (protein)
chain: KVLERTLKVSNLEEAEKKLKEIEEEAKKTKAPLYVLLELEKPEKEILELVFRRLGEILREGLATSVTLELTSDLTEEQIDFAVRLADEAGVRLVLAISDE
B11: GBRAP_83_6895 (protein)
chain: KEEITVVANSDNIEEAFDIAIDLSKEEGYKVSIEVIVTPESVEKLLKAFEKLAKEKINVELTVYAEGMTEEEAEELKEKLEEIAKKYGVDVKIEVILVEP
B12: GBRAP_14_3831 (protein)
chain: KKTVKEIIKEALKEIEEELIKAFPEKAEEIKKGMEEILKEVFKELEETKDVEKAFKLLLEKSKEMVDEILKDESETDRAAAKALVDGIVAEAELEYEELK
B13: GBRAP_160_4472 (protein)
chain: SAAVAAAVARLRADVEEELERLKDESPEQIATGAAVTVGSELLEWSSEGLITDEQEDILAKAMDEILELGKTEKDASPEEMIKRIREIVDAAAAAILAAA
B14: GBRAP_43_5759 (protein)
chain: SKELVEGALDFALLAAEDPNISEETKVKAIIAALDLAADEGYLDEELLKEVVEAAAKNLSAESLKKIRDRAEERAKAYPELKEKFTKAADLLEKAIKAKE
B15: GBRAP_125_3047 (protein)
chain: SLEELVEALRLLAKKLGYSEEEVEEIARLARKYGVKGTLIAILLAEGEEELAELAAKLTDEQVAEVLLELKAWLEENPDASKEEVLKKLRELLEKALAKT
B16: GBRAP_14_3879 (protein)
chain: MEEIEKVIDEEFKELAEDLSEMFPEKAEEIKKLVEEIRKETIKLIKETGDVEKALKEAEEKLKAEITKLLADEDPTAIAAAKALVTDEIAEAEEEIEELL
B17: GBRAP_14_3770 (protein)
chain: MEKKEEIIREEAEEIVELLGEIVPEKAEEFREAVEEVREETIKEMKETGDVDAALDKGEEELVARIKEISADLDPETQAELVAVVRVGMGNAKLELDELE
B18: GBRAP_160_3996 (protein)
chain: SEKKEKIFKEIKEILEEAYELMKGESPEERLAIARVSAGEILLILDESGLVSDETEEEVDKILDEFVATVAANPDMSDEELKKLLEETFKKIKEVIEKNL
B19: GBRAP_52_6002 (protein)
chain: MEERMRALAEEVMALYLAGDREGARALMREVAATLSEEELLAFARELGRLALAHTPEAPEEALEALLDFEDIAEEEGASEEVIAELTAAAARVAALAEAQ
B20: GBRAP_52_5890 (protein)
chain: DLEEAVKLLREAVKAQKAGKEEEAKKILKEIVEKFDEETILAAVERLAEEVKTKSLEEAEAFYNTALLLAEIILEKGGSEEVASYIEAIAGATLYKIEQK
B21: GBRAP_160_4504 (protein)
chain: MEKLEEAKKEIDRIAEITIEAMKEVSDEDAVKIFEAGALDMIEYLREEYGISEEAEEELIEKLDELAAELKSIENLTDEDIEAAVNDFRDFAIKLLEEKS
B22: GBRAP_52_6261 (protein)
chain: MEEELRKKVEEALELVKEGKEEEARELLEKLARELNEEEFELFVREFAKLAEEAPAEDIEAVERLVELAEEEFEEAGKPEELVSLLAAEGYGAIYKRKQA
B23: GBRAP_160_4171 (protein)
chain: SETLEEAIEEIDEIFEEAVEMMRGQTAEERAAIARVAFGEIILLLEEKGLLTDELDEHIDEVEDRVVSYILAHPDLTDEELRELMEEARDEIIEALKKSS
B24: GBRAP_9_7164 (protein)
chain: SKEVKEKILEIVKEALEEMIEVVPEEVKPLAKKLAEEALKELEKAVKDEKVTVEEFAKLAKEKLKKVAEELKKKVSPEVAKQIEAIRLTAIEEIEEVVEE
B25: GBRAP_128_3268 (protein)
chain: MDPEVVEYAKEAVERIKTSSPEERKKIAEEFAKWLLESSLEDAEQAVEVVEERLHELSVEDLDILADALRKHRPKADPEKANLLADLEVEALNEAEEKEE
B26: GBRAP_166_4925 (protein)
chain: MIEEKVEEARKRLEEVIREGRADPSLTDGQITAAMAYEVAEMLKDIEDEEEKLAVVEEGLRLAKEEGLDPRRLATLTASLYGFSDEERERIDEITEKILA
B27: GBRAP_52_6173 (protein)
chain: MEARARAAAEALLAAIRAGRWEEVRKLLREAAETFNEEEITLMWDIVAERVPELSPADQERVVEAALEAEDILIEAGHDENLASYQTARVAGAAYAALQA
B28: GBRAP_83_6903 (protein)
chain: AEKIVVATHSDRAEEMADAVIDLTKEEGYEVSVAVFVTPEGIEKVLEAVRRLAEEGIEVELEIVAVGMTEEEIERLREEIERIAEEYGVNIEVTIHRLEP
B29: GBRAP_122_2960 (protein)
chain: AAEAAALAAALAALDAAADKPLSDVVATAMAALAAATSEEAKRAIIERAAAIISKKVPKVSEEEVREILEEARRLMEEEGATAAEAAAFADVEILDLEME

The full ranking holds about 4,500 sequences; the median of “median log2 fold change of GCK-ALFA target abundance (FLAG IP / Myc IP barcode read proportion)” is about 0.078, and the lowest 2% start at about -0.6. The list shows a part of the results.

This assay deals with GABARAP, O95166. Nature of the assay: median log2 fold change of GCK-ALFA target abundance (FLAG IP / Myc IP barcode read proportion) (log2 ratio); each designed protein is fused to an ALFA-tag nanobody in HEK293 cells to bring the named protein to FLAG-tagged glucokinase (GCK); Myc marks an untargeted standard; higher = target protein stabilised (more abundant). The following applies: target protein: 3xFLAG-MCP-GCK-ALFA reporter; HEK293 landing pad (RPLP). The gist of the method: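 An ALFA-nanobody-fused binder library was recombined into HEK293 landing-pad cells and induced with 2 μg mL^−1 doxycycline. Cells were transfected with a plasmid expressing a FLAG-tagged target and a Myc-tagged standard. After 48 h, lysates underwent anti-FLAG and anti-Myc immunoprecipitation, and circular RNA barcodes were reverse transcribed, amplified and sequenced. Target abundance is the per-binder median log2 ratio of FLAG to Myc barcode read proportions. Barcodes needed ≥10^−7 proportion in both replicates, binders ≥3 barcodes per replicate, and a 10^−6 pseudocount was added; the two replicates were pooled.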
GABARAP, O95166, sequence (O95166 whole entry, the tested form may be a part): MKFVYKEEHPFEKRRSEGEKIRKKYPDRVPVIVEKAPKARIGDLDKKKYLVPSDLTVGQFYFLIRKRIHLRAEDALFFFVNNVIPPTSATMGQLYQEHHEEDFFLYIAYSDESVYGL
On to B1, for which the “median log2 fold change” value stood at 0.0727.
With B2, the “median log2 fold change” value was determined as 0.214.
With B3 the figure was 0.136; with B4, 0.292.
B5: the “median log2 fold change” value came out at 0.145.
With B6 the figure was -0.207.
Consider B7, for which the “median log2 fold change” value amounted to 0.146.
In the case of B8, the “median log2 fold change” value is -0.261.
In the case of B9, the “median log2 fold change” value was -0.427.
In the case of B10, the “median log2 fold change” value was 0.238.
B11: the “median log2 fold change” value is 0.0622.
For the molecule B12, the “median log2 fold change” value worked out at 0.395.
Turning to B13, the “median log2 fold change” value was -0.0686.
The result for B14 reads 0.188; that for B15, -0.274; that for B16, 0.127.
For B17, the “median log2 fold change” value was found to be 0.0278.
B18: the “median log2 fold change” value is -0.52.
With B19 the figure was -0.000102; with B20, 0.137; with B21, -0.0506.
For B22, the “median log2 fold change” value is 0.0514.
For the molecule B23, the “median log2 fold change” value was -0.418.
With B24, the “median log2 fold change” value amounted to 0.295.
On to B25, for which the “median log2 fold change” value was 0.0419.
Turning to B26, the “median log2 fold change” value is 0.302.
As for B27, the “median log2 fold change” value was -0.321.
B28: the “median log2 fold change” value came to 0.217.
For B29, the “median log2 fold change” value was found to be 0.133.
